{"source": "PubChem BioAssay AID1347044", "about": "(National Center for Advancing Translational Sciences (NCATS), 2019)", "note": "This is one part of the list. Shown are side measurements of this screen, not its main read-out; they come without a call. Most of these compounds were active or inconclusive in the main read-out, so they are no random draw. Words in brackets tell the shape of the fitted curve; partial curves, single points and poor fits give uncertain potencies. Tags give direction and shape of the fitted curve.", "data": [{"test": "Natriuretic polypeptide receptor (hNpr1) antagonism - Confirmation; note: nearly all actives have a fitted effect of over 70% in size", "settings": "HEK293 hNpr1 cGMP GloSensor luminescence, ANP-stimulated; measured here: HEK-hNpr1 cytotoxicity, CellTiter-Glo", "in_short": "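HEK293 cells expressing hNpr1 and the pGS-40F GloSensor cGMP sensor, loaded with 2% GloSensor reagent for 2 h, then treated 30 min with compound at room temperature. Luciferase luminescence read before and 20 min after 0.1 nM hNppA stimulation.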", "values": [{"compound": "Cn1cccc1CN1CCn2c(nn(-c3ccc(Cl)cc3)c2=O)C1", "CC50": "24.3 µM [falling, partial curve, poor fit]"}, {"compound": "C[S+](=O)([O-])NCCn1ccc2cc(OC3CCN(c4ncc(F)cn4)CC3)cnc21", "CC50": "28 µM [falling, partial curve]"}, {"compound": "COc1ccc(Cl)cc1C(=O)N1CCN(C(=O)c2nnn3c2COC(c2ccccc2)C3)CC1", "note": "(stereo not drawn)", "CC50": "38.5 µM [falling, single point]"}, {"compound": "N#Cc1ccc(NC(=S)N[C@H]2CO[C@H]3[C@@H]2OC[C@H]3OC(=O)Nc2ccccc2)cc1", "CC50": "31.4 µM [falling, partial curve]"}, {"compound": "CCOc1cc2c(cn1)NCCN(Cc1ccncc1Cl)C2", "CC50": "31.4 µM [falling, partial curve]"}, {"compound": "Cc1nn2c(c1-c1ccccc1[S+](C)(=O)[O-])N(CCCc1ccccc1)CCC2", "CC50": "70.3 µM [falling, single point]"}, {"compound": "COc1ccc(C(=O)N2CCCN(c3cc(-c4ccc(Cl)cc4)[nH]n3)CC2)cc1F", "CC50": "19.3 µM [falling, partial curve]"}, {"compound": "COc1ccc(C(=O)N2CCC(Cc3nc(-c4ccccc4)no3)CC2)cc1OC", "CC50": "9.68 µM [falling, partial curve]"}, {"compound": "CC(C)c1noc(-c2cn(C3CCN(C(=O)c4ccc(OC(F)(F)F)cc4)C3)nn2)n1", "note": "(stereo not drawn)", "CC50": "15.3 µM [falling, partial curve]"}, {"compound": "Cc1ccc(C2Cn3nnc(C(=O)N4CCN(C(=O)Cc5cccc(F)c5)CC4)c3CO2)cc1", "note": "(stereo not drawn)", "CC50": "21.7 µM [falling, partial curve]"}, {"compound": "CCCc1ccc(S(=O)(=O)NC2CCN(c3ccc(=O)n(CC4CC4)n3)CC2)cc1", "CC50": "19.3 µM [falling, partial curve]"}, {"compound": "N#Cc1cccc(CN2CCC(C3=NC(O)c4cc(F)ccc4N3)CC2)c1", "note": "(stereo not drawn)", "CC50": "15.3 µM [falling, partial curve]"}, {"compound": "NC(=O)Cc1c[nH]c2ncc(-c3ccccc3Oc3ccccc3)cc12", "CC50": "35.3 µM [falling, partial curve]"}, {"compound": "COc1ccc(-c2noc(CC3CCN(C(=O)c4cc(F)ccc4F)CC3)n2)cc1", "CC50": "10.9 µM [falling, partial curve]"}, {"compound": "CCC(C)NC(=O)N1CC(Oc2ccc(-c3noc(C4CCOCC4)n3)cc2)C1", "note": "(stereo not drawn)", "CC50": "6.11 µM [falling, full curve]"}, {"compound": "O=[S+]1([O-])NCC2(CCCN(Cc3ccc(C(F)(F)F)cc3)C2)Oc2ncccc21", "note": "(stereo not drawn)", "CC50": "21.7 µM [falling, partial curve, poor fit]"}, {"compound": "O=C(Nc1ccc(Cl)cc1)c1nc2c(o1)CCN(Cc1cc(F)ccc1F)CC2", "CC50": "35.3 µM [falling, partial curve]"}, {"compound": "O=C(c1ccc(Cl)cc1Cl)N1CCN(c2cc(-c3ccccc3)[nH]n2)CC1", "CC50": "17.2 µM [falling, partial curve]"}, {"compound": "CN(C)C(=O)c1cc2c(s1)CCC(C(=O)N1CCN(c3cccc(Cl)c3)CC1)C2", "note": "(stereo not drawn)", "CC50": "19.3 µM [falling, partial curve]"}, {"compound": "CC(C)S(=O)(=O)N1CC(Oc2ccc(-c3noc(C4CCOCC4)n3)cc2)C1", "CC50": "13.7 µM [falling, partial curve]"}, {"compound": "COc1ccc(OCC2(C)COc3ccc(C(=O)Nc4ccc(OC)nc4)cc3N2)cc1", "note": "(stereo not drawn)", "CC50": "35.3 µM [falling, partial curve]"}, {"compound": "Cc1nn2c(c1-c1ccccc1C(C)C)N(CCC(C)C)CCC2", "CC50": "49.8 µM [falling, single point]"}, {"compound": "CN(C)c1ccc(C(=O)N[C@H]2CO[C@H]3[C@@H]2OC[C@@H]3n2nnnc2Oc2cccc(N(C)C)c2)cc1", "CC50": "19.3 µM [falling, partial curve]"}, {"compound": "CC1=NS(=O)(=O)N(C)C=C1C(=O)OCc1noc(-c2ccccc2C)n1", "CC50": "17.2 µM [falling, partial curve]"}, {"compound": "O=C(C1CCCC1)N1CCC(CCOc2ccc(F)cc2)C1", "note": "(stereo not drawn)", "CC50": "30.6 µM [falling, single point]"}, {"compound": "O=C(c1ccc(F)c(Cl)c1)N1CCN(C(=O)c2nnn3c2COC(c2ccccc2)C3)CC1", "note": "(stereo not drawn)", "CC50": "24.3 µM [falling, partial curve]"}, {"compound": "O=C(Nc1ccc(F)c(Cl)c1)C1=NO[C@@H]2CN(Cc3cccnc3)C[C@H]12", "CC50": "35.3 µM [falling, partial curve]"}, {"compound": "O=C1COc2ccc(NCCc3ccccn3)nc2CN1Cc1ccc(C(F)(F)F)cc1", "CC50": "43.2 µM [falling, single point]"}, {"compound": "CC(C)c1ccc(N2C(=O)[C@@H]3C[C@@H](NC(=O)C4CCN(c5nccc(C(F)(F)F)n5)CC4)CCN3C2=O)cc1", "CC50": "4.32 µM [falling, full curve, poor fit]"}, {"compound": "COc1ccc(NC(=O)N2CCCC(c3noc(COc4ccccc4)n3)C2)c(C)c1", "note": "(stereo not drawn)", "CC50": "30.6 µM [falling, single point]"}, {"compound": "COc1cccc(CNC(=O)Cn2c(N(C)Cc3ccccc3)nc(C)cc2=O)c1OC", "CC50": "27.3 µM [falling, partial curve]"}, {"compound": "COc1cc(OC)cc(C(=O)N2CCCN(c3cc(-c4ccc(Br)cc4)[nH]n3)CC2)c1", "CC50": "27.3 µM [falling, single point]"}, {"compound": "COc1ccc(CC(=O)N2CCC(Cc3nc(-c4ccc(OC)cc4)no3)CC2)cc1", "CC50": "4.85 µM [falling, full curve]"}]}]}
